Measured values: patent US11178870B2 (priority 2017, dated 2021)

Experiments:
Magnaporthe grisea = type: in vivo; conditions: Table 7, Test A
Phytophthora infestans = type: in vivo; conditions: Table 7, Test F
[1] = test system: Colletotrichum orbiculare; conditions: 250 ppm sprayed (2.5 ml/pot) before inoculation; assessed 6 to 10 days after inoculation

| SMILES | control value, Test A (blast on rice) (Magnaporthe grisea) | control value, Test F (late blight on tomato) (Phytophthora infestans) | control value, Test H (anthracnose on cucumber) [1] |
| --- | --- | --- | --- |
| Cc1cnn(-c2cc(Cl)c(=O)n(C)c2-c2c(F)cccc2F)c1Cl [Compound 187] | H (H shows the control value more than 50%) | L (L shows the control value of 50% or less) | H (H shows the control value more than 50%) |
| CCn1c(-c2ccccc2F)c(-n2cc(Cl)cn2)cc(Cl)c1=O [Compound 220] | H (H shows the control value more than 50%) | L (L shows the control value of 50% or less) | H (H shows the control value more than 50%) |
| CCn1c(-c2c(F)cc(F)cc2F)c(-n2cnc(Cl)n2)cc(Br)c1=O [Compound 262] | H (H shows the control value more than 50%) | L (L shows the control value of 50% or less) | H (H shows the control value more than 50%) |
| Cc1cnn(-c2cc(Br)c(=O)n(CC(F)F)c2-c2ccc(F)cc2Cl)c1 [Compound 344] | H (H shows the control value more than 50%) | L (L shows the control value of 50% or less) | H (H shows the control value more than 50%) |
| CCn1c(-c2ccccc2Br)c(-n2cc(C)cn2)ccc1=O [Compound 268] | L (L shows the control value of 50% or less) | L (L shows the control value of 50% or less) | L (L shows the control value of 50% or less) |
| COc1ccc(-c2c(-n3cc(Cl)cn3)cc(Br)c(=O)n2CC(F)F)c(Cl)c1 [Compound 240] | L (L shows the control value of 50% or less) | L (L shows the control value of 50% or less) | H (H shows the control value more than 50%) |
